# In the antibiotic and cytotoxicity screens of Wong et al. (2023):
# The other results are listed elsewhere or left out.
# Tested on: HepG2
# Assay: cytotoxicity call (relative viability < 0.9)
# Settings: 10 µM
row,SMILES,cytotoxicity call
1,C=CCC[C@H](Cc1ccc(F)cc1)C(=O)OC[C@@H](Cc1c[nH]c2ccccc12)NC(=O)[C@H](CC=C)CC(=O)N(CCO)Cc1ccccc1,active
2,COCC#Cc1ccc2c(c1)O[C@@H](CN(C)S(=O)(=O)c1ccc(F)cc1)[C@@H](C)CN([C@@H](C)CO)S2(=O)=O,inactive
3,Cc1ccc(S(=O)(=O)Nc2ccc3c(c2)C(=O)N([C@H](C)CO)C[C@H](C)[C@H](CN(C)S(C)(=O)=O)OCCCC[C@H](C)O3)cc1,inactive
4,O=C(CN1CCOCC1)NCC[C@H]1CC[C@@H](NC(=O)c2ccc3c(c2)OCO3)[C@H](CO)O1,inactive
5,CC(C)CCN1CCn2c(CO)nnc2C1,inactive
6,COc1cccc(-c2ccc3c(c2)O[C@@H](CN(C)Cc2cncnc2)[C@H](C)CN([C@H](C)CO)S3(=O)=O)c1,inactive
7,CNC(=O)Nc1ccc(C(=O)NC)cc1,inactive
8,COCC(=O)Nc1ccc2c(c1)C(=O)N(C)C[C@@H](OC)[C@H](C)CN(C(=O)c1ccccc1F)[C@H](C)CO2,inactive
9,COC(=O)c1c(CC[C@@H](CO)NC(=O)N[C@H](Cn2cc(Cc3ccccc3)nn2)C(C)C)oc(C(C)=O)c1C(=O)OC,inactive
10,O=C(CCC(=O)N1CCOCC1)Nc1c(F)c(F)nc(N2CCOCC2)c1F,inactive
11,CCOC(=O)C(CCc1ccccc1)NC(C)C(=O)N1C(C(=O)O)CC2CCCC21 (stereo not given),inactive
12,O=C(C[C@@H]1CC[C@H]2[C@@H](COC[C@@H](O)CN2Cc2cccc(C(F)(F)F)c2)O1)NCCc1ccncc1,inactive
13,COc1ccc(CN(C)C[C@@H]2OCCCC[C@@H](C)Oc3ccc(NS(=O)(=O)c4c(C)noc4C)cc3C(=O)N([C@H](C)CO)C[C@@H]2C)cc1,inactive
14,C[C@@H]1CN([C@@H](C)CO)S(=O)(=O)c2ccc(C#CCC3CCCC3)cc2O[C@H]1CN(C)C(=O)CN(C)C,inactive
15,C[C@@H]1CCCCO[C@@H](CN(C)Cc2ccc(C(F)(F)F)cc2)[C@@H](C)CN([C@H](C)CO)C(=O)c2cc(NS(=O)(=O)c3ccc(Cl)cc3)ccc2O1,active
16,COc1ccc([Si](C)(C)[C@@H]2[C@@H](CC(=O)N3CCC[C@H]3CO)O[C@]3(C(=O)N(Cc4cccc(N5CCCCC5=O)c4)c4ccccc43)[C@H]2C)cc1,inactive
17,Cc1ccc(S(=O)(=O)N(C)C[C@H]2OCCCC[C@@H](C)Oc3ccc(NC(=O)Cc4ccccc4)cc3C(=O)N([C@@H](C)CO)C[C@H]2C)cc1,inactive
18,Cc1noc(C)c1NC(=O)Nc1ccc2c(c1)C(=O)N([C@H](C)CO)C[C@@H](C)[C@H](CN(C)C(=O)Nc1ccc(C(F)(F)F)cc1)O2,inactive
19,COc1ccc2c3c([nH]c2c1)[C@H](CO)N(CC1CCCC1)C[C@]13CCN(CC1)C(=O)c1ccc(cc1)F,inactive
20,O=C(O)c1cnc(N2CCCC2)nc1,inactive

row,SMILES,cytotoxicity call
1,C[C@@H]1CCCCO[C@@H](CN(C)Cc2ccc(C(F)(F)F)cc2)[C@@H](C)CN([C@@H](C)CO)C(=O)c2cc(NC(=O)c3ccncc3)ccc2O1,inactive
2,CCc1nc2c(OCC(=O)c3ccc(Cl)cc3Cl)cccn2c1N(C=O)Cc1ccc(OC)cc1,inactive
3,C[C@@H]1CCCCO[C@@H](CN(C)Cc2ccc(C(=O)O)cc2)[C@@H](C)CN([C@H](C)CO)C(=O)c2cc(NC(=O)NC3CCCCC3)ccc2O1,inactive
4,Cc1ccc(S(=O)(=O)Nc2ccc3c(c2)C(=O)N([C@@H](C)CO)C[C@H](C)[C@@H](CN(C)S(=O)(=O)c2ccc(C)cc2)OCCCC[C@H](C)O3)cc1,inactive
5,C[C@H](CO)N1C[C@H](C)[C@@H](CN(C)S(=O)(=O)c2ccc(Cl)cc2)OCCCC[C@H](C)Oc2ccc(NC(=O)NC3CCCCC3)cc2C1=O,active
6,O=C(O)CSc1ncnc2nc[nH]c12,inactive
7,C[C@H](CO)N1C[C@H](C)[C@@H](CN(C)S(=O)(=O)c2cn(C)cn2)Oc2c(NC(=O)C3CCOCC3)cccc2C1=O,inactive
8,O=C1O[C@H](c2ccccc2)[C@H](c2ccccc2)N2[C@H]1[C@@H](C(=O)N1CCCCCCC1)[C@]1(C(=O)Nc3ccc(C#CC4=CCCCC4)cc31)[C@H]2c1ccc(O)cc1,inactive
9,C=CCOC(=O)[C@H]1[C@@H]2C(=O)O[C@@H](c3ccccc3)[C@@H](c3ccccc3)N2[C@@H](c2ccc(OCCOC(=O)NCCCCCC(=O)NO)cc2)[C@@]12C(=O)Nc1ccccc12,inactive
10,C[C@@H]1CN([C@H](C)CO)C(=O)Cc2cc(NS(=O)(=O)c3cn(C)cn3)ccc2O[C@H]1CN(C)Cc1ccccc1,inactive
11,CC(C)NC(=O)Nc1ccc2c(c1)C(=O)N([C@@H](C)CO)C[C@H](C)[C@H](CN(C)Cc1ccc(Oc3ccccc3)cc1)O2,inactive
12,C[C@@H]1CN([C@@H](C)CO)C(=O)Cc2cc(NS(=O)(=O)c3cn(C)cn3)ccc2O[C@H]1CN(C)Cc1ccccc1,inactive
13,Nc1cncnc1,inactive
14,COc1ccc(S(=O)(=O)N2C[C@@H](O)COC[C@H]3O[C@@H](CC(=O)NCc4ccc(Cl)c(Cl)c4)CC[C@@H]32)cc1,active
15,Cc1nsc(C(=O)NC[C@H]2CCCO2)n1,inactive
16,C[C@@H]1CN([C@H](C)CO)C(=O)CCCn2cc(nn2)CO[C@@H]1CN(C)C(=O)CCCN(C)C,inactive
17,Cc1cc(C)c(S(N)(=O)=O)cc1S(N)(=O)=O,inactive
18,C[C@H]1CN([C@@H](C)CO)C(=O)Cc2cc(NS(=O)(=O)c3cn(C)cn3)ccc2O[C@@H]1CN(C)CC1CCCCC1,inactive
19,CCS(=O)(=O)Nc1ccc2c(c1)C(=O)N(C)[C@@H]1CC[C@H](CC(=O)N[C@@H]3CCN(Cc4ccccc4)C3)O[C@@H]1CO2,inactive
20,C[C@H](O)C#Cc1cnc2c(c1)C(=O)N([C@H](C)CO)C[C@@H](C)[C@H](CN(C)C(=O)Nc1ccc(C(F)(F)F)cc1)O2,inactive
